Measurements as given in the supplement of paper PMC12217912.
This is one part of the list. Sequences were assembled here from the parent chain. Values near 0.05 are background.

B1: TEV protease; numbered along this chain (parent)
chain: MGESLFKGPRDYNPISSSICHLTNESDGHTTSLYGIGFGPFIITNKHLFRRNNGTLVVQSLHGVFKVKDTTTLQQHLVDGRDMIIIRMPKDFPPFPQKLKFREPQREERICLVTTNFQTKSMSSMVSDTSCTFPSGDGIFWKHWIQTKDGQCGSPLVSTRDGFIVGIHSASNFTNTNNYFTSVPKNFMELLTNQEAQQWVSGWRLNADSVLWGGHKVFMVKPEEPFQPVKEATQL

Variants of: B1
Assay: raw area under fraction-flipped curve 0-4 h after induction (AUC4h, not background-subtracted), DNA-recorder readout of cleavage of the substrate (dimensionless); higher = more cleavage of the substrate by the protease variant
Conditions: temperature: 34 °C; time window: 0-4 h after rhamnose induction
Protocol: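 In vivo DNA recorder in E. coli TOP10(DE3) ΔrhaA at 34 °C. Each TEVp single-site mutant (parent TEVp 0) is paired with a single-site variant of the 7-mer TEVs (canonical ENLYFQ|S). The substrate sits between flexible linkers in a Bxb1-sfGFP-TEVs-SsrA fusion, so cleavage stabilises Bxb1 and speeds flipping of a recombination array, read by NGS. The value is the raw area under the fraction-flipped curve over 0-4 h after rhamnose induction (AUC4h), with ≥20 reads per time point. It is not background-subtracted; inactive controls average about 0.047.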
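Also: Bxb1 expression induced with 0.2% (w/v) L-rhamnose at OD600 near 0.5, cultures sampled hourly, flipped fraction per protease–substrate barcode pair counted by paired-end Illumina sequencing.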

Variant	area with substrate ENLYFQC	area with substrate ENLYFQH	area with substrate ENLYFQI	area with substrate ENLYFQL	area with substrate ENLYFQM	area with substrate ENLYFQN	area with substrate ENLYFQP	area with substrate ENLYFQR	area with substrate ENLYFQS	area with substrate ENLYFQT	area with substrate ENLYFQW	area with substrate ENLYFQD	area with substrate ENLYFQF	area with substrate ENLYFQG	area with substrate ENLYFQK	area with substrate ENLYFQV	area with substrate ENLYFQY	area with substrate ENLYFQE	area with substrate ENLYFQQ
MGESLFKGPRDYNPISSSICHLTNESDGHTTSLYGIGFGPFIITNKHLFRRNNGTLVVQSLHGVFKVKDTTTLQQHLVDGRDMIIIRMPKDFPPFPQKLKFREPQREERICLVTTNFQTKSMSSSVSDTSCTFPSGDGIFWKHWIQTKDGQCGSPLVSTRDGFIVGIHSASNFTNTNNYFTSVPKNFMELLTNQEAQQWVSGWRLNADSVLWGGHKVFMVKPEEPFQPVKEATQL [M125S]	0.14	0.0685	0.0699	0.0487	0.111	0.0642	0.058	0.0741	0.102	0.0685	0.069								
MGESLFKGPRDYNPISSSICHLTNESDGHTTSLYGIGFGPFIITNKHLFRRNNGTLVVQSLHGVFKVKDTTTLQQHLVDGRDMIIIRMPKDFPPFPQKLKFREPQREERICLVTTNFQTKSMSSRVSDTSCTFPSGDGIFWKHWIQTKDGQCGSPLVSTRDGFIVGIHSASNFTNTNNYFTSVPKNFMELLTNQEAQQWVSGWRLNADSVLWGGHKVFMVKPEEPFQPVKEATQL [M125R]	0.157	0.0802	0.0585	0.0511	0.0998	0.0841	0.0579	0.0676	0.111	0.0674	0.0763	0.0683	0.0777	0.121	0.0548	0.0562	0.0362		
MGESLFKGPRDYNPISSSICHLTNESDGHTTSLYGIGFGPFIITNKHLFRRNNGTLVVQSLHGVFKVKDTTTLQQHLVDGRDMIIIRMPKDFPPFPQKLFFREPQREERICLVTTNFQTKSMSSMVSDTSCTFPSGDGIFWKHWIQTKDGQCGSPLVSTRDGFIVGIHSASNFTNTNNYFTSVPKNFMELLTNQEAQQWVSGWRLNADSVLWGGHKVFMVKPEEPFQPVKEATQL [K100F]	0.122		0.054		0.0647		0.0739	0.0636	0.102	0.0836			0.106	0.0882	0.0596				
MGESLFKGPRDYNPISSSICHLTNESDGHTTSLYGIGFGPFIITNKHLFRRNNGTLVVQSLHGVFKVKDTTTLQQHLVDGRDKIIIRMPKDFPPFPQKLKFREPQREERICLVTTNFQTKSMSSMVSDTSCTFPSGDGIFWKHWIQTKDGQCGSPLVSTRDGFIVGIHSASNFTNTNNYFTSVPKNFMELLTNQEAQQWVSGWRLNADSVLWGGHKVFMVKPEEPFQPVKEATQL [M83K]	0.058	0.0554	0.0546	0.0576	0.0622	0.0431	0.0493	0.0373	0.061		0.0497			0.06	0.0748		0.0599		
MGESLFKGPRDYNPISSSICHLTNESDGHTTSLYGIGFGPFIITNKHLFRRNNGTLVVQSLHGVFKVKDTTTLQQHLVDGRDMIIIRMPKDFPPFPQKLKFREPQREERIWLVTTNFQTKSMSSMVSDTSCTFPSGDGIFWKHWIQTKDGQCGSPLVSTRDGFIVGIHSASNFTNTNNYFTSVPKNFMELLTNQEAQQWVSGWRLNADSVLWGGHKVFMVKPEEPFQPVKEATQL [C111W]	0.0963		0.0655		0.0756	0.0826		0.0632	0.0887		0.0597		0.0727	0.089	0.087			0.102	
MGESLFKGPRDYNPISSSICHLTNESDGHTTSLYGIGFGPFIITNKHLFRRNNGTLVVQSLHGVFKVKDTTTLQQHLVDGRDMIIIRMPKDFPPFPQKLKFREPQREERICLVTTNFQTKSMSFMVSDTSCTFPSGDGIFWKHWIQTKDGQCGSPLVSTRDGFIVGIHSASNFTNTNNYFTSVPKNFMELLTNQEAQQWVSGWRLNADSVLWGGHKVFMVKPEEPFQPVKEATQL [S124F]	0.0948		0.0618	0.0477	0.0733	0.0766	0.0743	0.0776	0.0986	0.0632	0.0369			0.0914	0.0686		0.0522		
MGESLFKGPRDYNPISSSICHLTNESDGHTTSLYGIGFGPFIITNKHLFRRNNGTLVVQSLHGVFKVKDTTTLQQHLVDGRDMIIIRMPKDFPPFPQKLKFREPQREERICLVTTNFQTKSMSIMVSDTSCTFPSGDGIFWKHWIQTKDGQCGSPLVSTRDGFIVGIHSASNFTNTNNYFTSVPKNFMELLTNQEAQQWVSGWRLNADSVLWGGHKVFMVKPEEPFQPVKEATQL [S124I]	0.0954	0.0584	0.0687		0.072	0.079	0.0592		0.0973	0.0515	0.0665				0.0667	0.0644			
MGESLFKGPRDYNPISSSICHLTNESDGHTTSLYGIGFGPFIITNKHLFRRNNGTLVVQSLHGVFKVKDTTTLQQHLVDGRDMIIIRMPKDFPPFPQKLKFREPQREERICLVTTNFQTKSMSAMVSDTSCTFPSGDGIFWKHWIQTKDGQCGSPLVSTRDGFIVGIHSASNFTNTNNYFTSVPKNFMELLTNQEAQQWVSGWRLNADSVLWGGHKVFMVKPEEPFQPVKEATQL [S124A]	0.138	0.0186	0.0645		0.133	0.0798	0.0622	0.0573	0.11	0.0727				0.0771					
MGESLFKGPRDYNPISSSICHLTNESDGHTTSLYGIGFGPFIITNKHLFRRNNGTLVVQSLHGVFKVKDTTTLQQHLVDGRDMFIIRMPKDFPPFPQKLKFREPQREERICLVTTNFQTKSMSSMVSDTSCTFPSGDGIFWKHWIQTKDGQCGSPLVSTRDGFIVGIHSASNFTNTNNYFTSVPKNFMELLTNQEAQQWVSGWRLNADSVLWGGHKVFMVKPEEPFQPVKEATQL [I84F]	0.073	0.0478		0.017	0.0556	0.0654		0.0567	0.0625	0.0577	0.0544	0.0507				0.0564	0.035		0.0552
